# Laboratory results taken from article PMC12820563.
# The list shows a part of the results. The list includes weakly bound sequences.
# Target: T1, MBP-FoxP3dN (UniProt Q99JB6)
# T1 sequence: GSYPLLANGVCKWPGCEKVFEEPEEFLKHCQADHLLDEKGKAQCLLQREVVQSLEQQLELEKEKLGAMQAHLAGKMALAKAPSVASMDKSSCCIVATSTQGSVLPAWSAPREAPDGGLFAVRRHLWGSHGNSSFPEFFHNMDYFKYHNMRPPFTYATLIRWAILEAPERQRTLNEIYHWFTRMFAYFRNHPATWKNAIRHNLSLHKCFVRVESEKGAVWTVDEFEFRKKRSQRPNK
# Assay: PD-seq (MBP pull-down with sequencing)
# Settings: 20 mM Tris-HCl pH 7.5, 100 mM NaCl, 1.5 mM MgCl2, 0.4 uM protein, 0.1 uM dsDNA library, 30 min, room temperature, amylose pull-down; high values mean tight binding; double strand, one strand shown
row,Sequence,binding signal (RPM ratio (pull-down/input))
1,GATGATTGTTCTCCCAGCTGATGAATTATTCTCGTCGAGTAAACAAATTTTCCTAATCTTTCTGTTCAAGCGCCATCTAC,0.288
2,GATGATTGTTCTCCCAGCTGATGAATTTCGGCCCTCGAGTAAACAAATTTTCCTAATCTTTCTGTTCAAGCGCCATCTAC,0.426
3,GATGATTGTTCTCCCAGCTGATGAATTTGGATAATCGAGTAAACAAATTTTCCTAATCTTTCTGTTCAAGCGCCATCTAC,0.467
4,GATGATTGTTCTCCCAGCTGATGAATTCTGCCAGTCGAGTAAACAAATTTTCCTAATCTTTCTGTTCAAGCGCCATCTAC,2.44
5,GATGATTGTTCTCCCAGCTGATGAATTTACCATATCGAGTAAACAAATTTTCCTAATCTTTCTGTTCAAGCGCCATCTAC,0.721
6,GATGATTGTTCTCCCAGCTGATGAATTCTCCCCGTCGAGTAAACAAATTTTCCTAATCTTTCTGTTCAAGCGCCATCTAC,0.178
7,GATGATTGTTCTCCCAGCTGATGAATTCATAAGTTCGAGTAAACAAATTTTCCTAATCTTTCTGTTCAAGCGCCATCTAC,0.309
8,GATGATTGTTCTCCCAGCTGATGAATTTAGGAGGTCGAGTAAACAAATTTTCCTAATCTTTCTGTTCAAGCGCCATCTAC,0.288
9,GATGATTGTTCTCCCAGCTGATGAATTGACCCTATCGAGTAAACAAATTTTCCTAATCTTTCTGTTCAAGCGCCATCTAC,0.371
10,GATGATTGTTCTCCCAGCTGATGAATTCTTGATATCGAGTAAACAAATTTTCCTAATCTTTCTGTTCAAGCGCCATCTAC,0.413
11,GATGATTGTTCTCCCAGCTGATGAATTTGTGGTGTCGAGTAAACAAATTTTCCTAATCTTTCTGTTCAAGCGCCATCTAC,6.2
12,GATGATTGTTCTCCCAGCTGATGAATTAGTCGCTTCGAGTAAACAAATTTTCCTAATCTTTCTGTTCAAGCGCCATCTAC,0.902
13,GATGATTGTTCTCCCAGCTGATGAATTTCTCAACTCGAGTAAACAAATTTTCCTAATCTTTCTGTTCAAGCGCCATCTAC,0.271
14,GATGATTGTTCTCCCAGCTGATGAATTGTCCTCGTCGAGTAAACAAATTTTCCTAATCTTTCTGTTCAAGCGCCATCTAC,0.324
15,GATGATTGTTCTCCCAGCTGATGAATTAAGCGCTTCGAGTAAACAAATTTTCCTAATCTTTCTGTTCAAGCGCCATCTAC,0.691
16,GATGATTGTTCTCCCAGCTGATGAATTTCACCTGTCGAGTAAACAAATTTTCCTAATCTTTCTGTTCAAGCGCCATCTAC,0.326
17,GATGATTGTTCTCCCAGCTGATGAATTTTCGTGGTCGAGTAAACAAATTTTCCTAATCTTTCTGTTCAAGCGCCATCTAC,0.318
18,GATGATTGTTCTCCCAGCTGATGAATTGCGCCCCTCGAGTAAACAAATTTTCCTAATCTTTCTGTTCAAGCGCCATCTAC,2.8
19,GATGATTGTTCTCCCAGCTGATGAATTGGAGGGGTCGAGTAAACAAATTTTCCTAATCTTTCTGTTCAAGCGCCATCTAC,0.289
20,GATGATTGTTCTCCCAGCTGATGAATTACTTAACTCGAGTAAACAAATTTTCCTAATCTTTCTGTTCAAGCGCCATCTAC,0.277

row,Sequence,binding signal (RPM ratio (pull-down/input))
1,GATGATTGTTCTCCCAGCTGATGAATTTCGAAACTCGAGTAAACAAATTTTCCTAATCTTTCTGTTCAAGCGCCATCTAC,0.592
2,GATGATTGTTCTCCCAGCTGATGAATTTCTCATTTCGAGTAAACAAATTTTCCTAATCTTTCTGTTCAAGCGCCATCTAC,0.315
3,GATGATTGTTCTCCCAGCTGATGAATTGTGACTCTCGAGTAAACAAATTTTCCTAATCTTTCTGTTCAAGCGCCATCTAC,2.61
4,GATGATTGTTCTCCCAGCTGATGAATTCCCATCATCGAGTAAACAAATTTTCCTAATCTTTCTGTTCAAGCGCCATCTAC,0.449
5,GATGATTGTTCTCCCAGCTGATGAATTACCTCCATCGAGTAAACAAATTTTCCTAATCTTTCTGTTCAAGCGCCATCTAC,0.326
6,GATGATTGTTCTCCCAGCTGATGAATTTTACTATTCGAGTAAACAAATTTTCCTAATCTTTCTGTTCAAGCGCCATCTAC,0.588
7,GATGATTGTTCTCCCAGCTGATGAATTGCCCGATTCGAGTAAACAAATTTTCCTAATCTTTCTGTTCAAGCGCCATCTAC,0.399
8,GATGATTGTTCTCCCAGCTGATGAATTAGTTCGATCGAGTAAACAAATTTTCCTAATCTTTCTGTTCAAGCGCCATCTAC,0.311
9,GATGATTGTTCTCCCAGCTGATGAATTAGTAAGGTCGAGTAAACAAATTTTCCTAATCTTTCTGTTCAAGCGCCATCTAC,0.467
10,GATGATTGTTCTCCCAGCTGATGAATTTGTAGCGTCGAGTAAACAAATTTTCCTAATCTTTCTGTTCAAGCGCCATCTAC,4.35
11,GATGATTGTTCTCCCAGCTGATGAATTTTCGCCTTCGAGTAAACAAATTTTCCTAATCTTTCTGTTCAAGCGCCATCTAC,3.05
12,GATGATTGTTCTCCCAGCTGATGAATTTAACGGATCGAGTAAACAAATTTTCCTAATCTTTCTGTTCAAGCGCCATCTAC,0.224
13,GATGATTGTTCTCCCAGCTGATGAATTACAGACCTCGAGTAAACAAATTTTCCTAATCTTTCTGTTCAAGCGCCATCTAC,0.28
14,GATGATTGTTCTCCCAGCTGATGAATTAAGACGTTCGAGTAAACAAATTTTCCTAATCTTTCTGTTCAAGCGCCATCTAC,0.38
15,GATGATTGTTCTCCCAGCTGATGAATTTGATGGCTCGAGTAAACAAATTTTCCTAATCTTTCTGTTCAAGCGCCATCTAC,2.49
16,GATGATTGTTCTCCCAGCTGATGAATTGAACAGTTCGAGTAAACAAATTTTCCTAATCTTTCTGTTCAAGCGCCATCTAC,0.266
17,GATGATTGTTCTCCCAGCTGATGAATTAACGTAGTCGAGTAAACAAATTTTCCTAATCTTTCTGTTCAAGCGCCATCTAC,0.352
18,GATGATTGTTCTCCCAGCTGATGAATTTACTGAATCGAGTAAACAAATTTTCCTAATCTTTCTGTTCAAGCGCCATCTAC,0.305
19,GATGATTGTTCTCCCAGCTGATGAATTGCCACCCTCGAGTAAACAAATTTTCCTAATCTTTCTGTTCAAGCGCCATCTAC,1.05
20,GATGATTGTTCTCCCAGCTGATGAATTCGTACCCTCGAGTAAACAAATTTTCCTAATCTTTCTGTTCAAGCGCCATCTAC,0.532
